Reference: patent publication US20140155362A1, “BHQ-CONJUGATES, AND RELATED COMPOUNDS, METHODS OF MAKING THE SAME, AND METHODS OF USE THEREOF” (priority 2011, published 2014)

Conditions: at concentrations high enough for HPLC analysis
Description: The quantum efficiency (Qu) for photolysis of BHQ-VAA at 365 nm, which is not detrimental to biological tissues, is similar to other BHQ-caged compounds and quite high relative to other protecting groups for biological use.^11,12 The 2-photon uncaging action cross-section (δu), a measure of the sensitivity of the compound to 2PE-mediated release of VAA is also similar to other BHQ-caged compounds and sufficiently high for biological use.

Compound | solubility in aqueous buffers
COc1cc(CNC(=O)CCCC/C=C/C(C)C)ccc1OCc1ccc2ccc(O)c(Br)c2n1 [BHQ-Capsaicin] | poor solubility
CCCCCCCCC(=O)NCc1ccc(OCc2ccc3ccc(O)c(Br)c3n2)c(OC)c1 [BHQ-VNA] | poor solubility
